Source: article PMC12013732
Results are given in words; binding and its absence hold for the method and conditions named. For some of these results: In cells and extracts the contact can be indirect. Some entries that bind do so weakly or less than the wild type. For some of these results: Sequences can lack the tags named with a protein. Each block holds one molecule with its values, some of them ahead of it.

Protein sequences, listed by entry. Tags and fused reporters are not part of them. Lines headed by an entry give the natural chain unless they say otherwise; changes in a name come on top.
UniProt P21796: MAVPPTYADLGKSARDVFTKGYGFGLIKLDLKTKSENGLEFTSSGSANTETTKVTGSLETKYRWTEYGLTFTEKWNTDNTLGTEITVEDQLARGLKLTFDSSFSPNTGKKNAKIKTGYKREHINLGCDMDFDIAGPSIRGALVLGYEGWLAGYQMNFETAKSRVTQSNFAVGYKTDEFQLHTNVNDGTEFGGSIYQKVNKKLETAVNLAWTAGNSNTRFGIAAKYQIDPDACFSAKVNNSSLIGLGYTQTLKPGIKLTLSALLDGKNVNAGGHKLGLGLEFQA

Tests used:
[1] = molecular target: T1, Flag-TRIM65 (full length) (UniProt Q6PJ69); assay: co-IP; lysates of co-transfected HEK293T cells, western blot; IgG as negative control
T1 sequence: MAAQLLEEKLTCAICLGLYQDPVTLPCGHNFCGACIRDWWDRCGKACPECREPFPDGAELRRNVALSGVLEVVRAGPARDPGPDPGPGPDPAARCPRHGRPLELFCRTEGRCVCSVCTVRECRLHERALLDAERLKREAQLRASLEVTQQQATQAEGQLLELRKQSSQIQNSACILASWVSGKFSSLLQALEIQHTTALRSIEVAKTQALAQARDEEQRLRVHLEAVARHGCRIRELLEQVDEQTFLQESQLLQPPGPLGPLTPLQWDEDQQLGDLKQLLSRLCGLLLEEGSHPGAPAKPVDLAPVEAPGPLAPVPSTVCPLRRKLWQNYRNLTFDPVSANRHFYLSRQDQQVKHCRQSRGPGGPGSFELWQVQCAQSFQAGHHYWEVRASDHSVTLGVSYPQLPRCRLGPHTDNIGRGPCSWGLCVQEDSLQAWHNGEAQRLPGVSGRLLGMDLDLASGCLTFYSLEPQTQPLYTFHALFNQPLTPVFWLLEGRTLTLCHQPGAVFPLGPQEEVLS

[2] = molecular target: T2, GST-TRIM65 fusion protein (UniProt Q6PJ69); assay: pull-down; purified GST or GST-TRIM65 on beads incubated with lysates of HEK293T cells transfected with 10 µg HA-VDAC1 plasmid; western blot; only the target purified
T2 sequence: T1 sequence

[3] = molecular target: T3, TRIM65 (endogenous, HK-2 cells) (human (endogenous in HK-2)) (UniProt Q6PJ69); assay: co-IP; lysates of HK-2 cells, western blot; IgG as negative control
T3 sequence: T1 sequence

[4] = molecular target: T4, TRIM65 (yeast two-hybrid fusion) (UniProt Q6PJ69); assay: two-hybrid; yeast two-hybrid system
T4 sequence: T1 sequence

HA-VDAC1 = HA-VDAC1 (UniProt P21796); assay: co-IP; lysates of co-transfected HEK293T cells, western blot; IgG as negative control

- binding [1]: binds
Molecule: GFP-VDAC1 deletion mutant, amino acids 1-131 (from UniProt P21796 1-131) (domain or fragment)

- binding [1]: no binding
Molecule: GFP-VDAC1 deletion mutant, amino acids 132-283 (from UniProt P21796 132-283) (domain or fragment)

- binding [1]: binds
- binding [2]: binds
Molecule: HA-VDAC1 (from UniProt P21796 1-283)

- binding [3]: binds
Molecule: VDAC1 (endogenous, HK-2 cells) (from UniProt P21796 1-283)

- binding [4]: binds
Molecule: VDAC1 (yeast two-hybrid fusion) (from UniProt P21796 1-283)

- binding (HA-VDAC1): binds
B1: Flag-TRIM65 (full length) (protein, UniProt Q6PJ69 1-517)
chain: T1 sequence
